# In PubChem BioAssay (Tox21):
# Inconclusive results are not listed. The call rests on the fitted dose curve; in most records, active means well fitted inhibition curve with a large enough effect in the repeat runs; inconclusive means weak or mixed curves; inactive means no such curve, though single readings can be large or run the other way. Where a structure was tested more than once in an assay, its records may differ in their call. Some entries of the source have several records that differ or are many. This is not the full list of results. The source may hold further records. Values given together repeat one measurement (runs, samples, wells, individuals or studies). Brackets tell where a record comes from. The letters are not those of the source and start again with each entry.
# Experiment: qHTS assay to identify small molecule antagonists of the thyroid receptor (TR) signaling pathway (AID 743065); further: nearly all actives have a fitted effect of over 55% in size
# Details: GH3.TRE-Luc, T3-stimulated luciferase inhibition, 23.5 h; series mostly up to 70.3 µM
# In short: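 GH3.TRE-Luc rat pituitary cells (two TREs driving luciferase) were dosed with compound, then stimulated with 1 nM T3 (final) for 23.5 h at 37 C. ONE-Glo luminescence was the read-out, with CellTiter-Fluor fluorescence as the cytotoxicity counter-screen.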
# Potency means the concentration at half of the fitted maximal effect.
row,Compound,Potency
1,CC(C)(C)c1ccc(C(O)CCCN2CCC(C(O)(c3ccccc3)c3ccccc3)CC2)cc1 (centres undefined),inactive [sample A] and active: 5.96 µM [sample B]
2,CN1CCCCC1CCN1c2ccccc2Sc2ccc(S(C)=O)cc21 (centres undefined),inactive [sample A] and active: 13.3 µM [sample B]
3,CCCCC/C=C\C/C=C\CCCCCCCC(=O)O,inactive [sample A] and active: 54.5 µM [sample B]
4,Oc1c(I)cc(Cl)c2cccnc12,inactive [sample A] and active: 24.3 µM [sample B]
